{"source": "the supplement of paper PMC8728848", "binders": {"B1": {"name": "B1567 (Bifidobacterium sp) (protein)", "chain": "MKFTTAKKAVALTGAVAMLVSVAACGSDSGKSSQPAQDSDVKEITVWAWEPSLTQVAKDFEKETGIKVDLKNVGTNTKEYTQLDNAIEAGSGAPDVAQVEYYAVPQYAIKGNLLDITDKTSGYKDFYTPGPWASVQFAGKVYGLPMDSGPMAFFYNKEVFDKAGVDAEQIKTWDQYYDAAKKIHALGDNYYITSDTGDAGFFDSMTWLAGAKPFQTSSDGSEVTVNLTEDKGVKTFTDFWQKLLDEGLLDTKTAGWSEDWFKGMVDGTIASLFTGAWMPANLANSAADGAGKWRVTQMPTADGSTTNSENGGSSLAVLASTKKADAAYQFIEYANHGAGVATRVAGGAFPADKASLEKDSFKNATTVKNADGQDVDYFGGQKYNEVLAQAAENVSSGYQFLPFEVKARTIFGDYFGKSYTGDQKLSDGVAAWQKALQDYGKDQGFTVK"}}, "assay_in_all_cases": "glycan array binding signal (z-score within array); higher = stronger binding", "conditions_in_all_cases": "glycan notation: IUPAC condensed, linker removed", "key": {"[1]": {"target": "Gal(b1-3)GlcNAc(b1-3)Gal(b1-4)GlcNAc(b1-2)[Gal(b1-3)GlcNAc(b1-3)Gal(b1-4)GlcNAc(b1-6)]Man(a1-6)[Gal(b1-3)GlcNAc(b1-3)Gal(b1-4)GlcNAc(b1-2)Man(a1-3)]Man(b1-4)GlcNAc(b1-4)[Fuc(a1-6)]GlcNAc", "how_it_was_run": "(§1)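 The binding signal is a Z-score computed within each array and averaged over linkers. Arrays of the same protein sequence at different concentrations or buffers were also averaged together. Data originate from 3228 arrays in the Consortium for Functional Glycomics database, kept only where the protein sequence was available.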"}, "[2]": {"target": "Gal(b1-3)GlcNAc(b1-3)Gal(b1-4)GlcNAc(b1-3)Gal(b1-4)GlcNAc(b1-2)[Gal(b1-3)GlcNAc(b1-3)Gal(b1-4)GlcNAc(b1-3)Gal(b1-4)GlcNAc(b1-6)]Man(a1-6)[Gal(b1-3)GlcNAc(b1-3)Gal(b1-4)GlcNAc(b1-3)Gal(b1-4)GlcNAc(b1-2)Man(a1-3)]Man(b1-4)GlcNAc(b1-4)[Fuc(a1-6)]GlcNAc", "how_it_was_run": "as §1"}, "[3]": {"target": "Gal(b1-3)GlcNAc(b1-3)Gal(b1-4)GlcNAc(b1-6)[Gal(b1-3)GlcNAc(b1-3)]Gal(b1-4)Glc", "how_it_was_run": "as §1"}, "[4]": {"target": "Gal(b1-3)GlcNAc(b1-3)Gal(b1-4)[Fuc(a1-3)]GlcNAc", "how_it_was_run": "as §1"}, "[5]": {"target": "Gal(b1-3)GlcNAc(b1-3)Gal(b1-4)[Fuc(a1-3)]GlcNAc(b1-6)[Gal(b1-3)GlcNAc(b1-3)]Gal(b1-4)Glc", "how_it_was_run": "as §1"}, "[6]": {"target": "Gal(b1-3)GlcNAc(b1-3)GalNAc", "how_it_was_run": "as §1"}, "[7]": {"target": "Gal(b1-3)GlcNAc(b1-6)Gal(b1-4)GlcNAc", "how_it_was_run": "as §1"}, "[8]": {"target": "Gal(b1-3)GlcNAc(b1-6)GalNAc", "how_it_was_run": "as §1"}, "[9]": {"target": "Gal(b1-3)GlcNAc(b1-6)[Gal(b1-3)]GalNAc", "how_it_was_run": "as §1"}, "Gal(b1-3)GlcNAc6S": {"target": "Gal(b1-3)GlcNAc6S", "how_it_was_run": "as §1"}, "[10]": {"target": "Gal(b1-3)[Fuc(a1-4)]GlcNAc", "how_it_was_run": "as §1"}, "[11]": {"target": "Gal(b1-3)[Fuc(a1-4)]GlcNAc(b1-2)Man", "how_it_was_run": "as §1"}, "[12]": {"target": "Gal(b1-3)[Fuc(a1-4)]GlcNAc(b1-2)Man(a1-3)[Gal(b1-3)[Fuc(a1-4)]GlcNAc(b1-2)Man(a1-6)]Man(b1-4)GlcNAc(b1-4)[Fuc(a1-6)]GlcNAc", "how_it_was_run": "as §1"}, "[13]": {"target": "Gal(b1-3)[Fuc(a1-4)]GlcNAc(b1-3)Gal(b1-3)[Fuc(a1-4)]GlcNAc", "how_it_was_run": "as §1"}, "[14]": {"target": "Gal(b1-3)[Fuc(a1-4)]GlcNAc(b1-3)Gal(b1-4)[Fuc(a1-3)]GlcNAc", "how_it_was_run": "as §1"}, "[15]": {"target": "Gal(b1-3)[Fuc(a1-4)]GlcNAc(b1-6)GalNAc", "how_it_was_run": "as §1"}, "[16]": {"target": "Gal(b1-3)[GlcNAc(b1-6)]GalNAc", "how_it_was_run": "as §1"}, "[17]": {"target": "Gal(b1-3)[Neu5Ac(a2-6)]GalNAc", "how_it_was_run": "as §1"}, "[18]": {"target": "Gal(b1-3)[Neu5Ac(a2-6)]GlcNAc(b1-4)Gal(b1-4)Glc", "how_it_was_run": "as §1"}, "[19]": {"target": "Gal(b1-3)[Neu5Ac(b2-6)]GalNAc", "how_it_was_run": "as §1"}, "Gal(b1-4)Gal": {"target": "Gal(b1-4)Gal", "how_it_was_run": "as §1"}, "[20]": {"target": "Gal(b1-4)GalNAc(a1-3)[Fuc(a1-2)]Gal(b1-4)GlcNAc", "how_it_was_run": "as §1"}, "[21]": {"target": "Gal(b1-4)GalNAc(b1-3)[Fuc(a1-2)]Gal(b1-4)GlcNAc", "how_it_was_run": "as §1"}, "Gal(b1-4)Glc": {"target": "Gal(b1-4)Glc", "how_it_was_run": "as §1"}, "Gal(b1-4)Glc6S": {"target": "Gal(b1-4)Glc6S", "how_it_was_run": "as §1"}, "Gal(b1-4)GlcNAc": {"target": "Gal(b1-4)GlcNAc", "how_it_was_run": "as §1"}, "[22]": {"target": "Gal(b1-4)GlcNAc(a1-6)Gal(b1-4)GlcNAc", "how_it_was_run": "as §1"}, "Gal(b1-4)GlcNAc(b1-2)Man": {"target": "Gal(b1-4)GlcNAc(b1-2)Man", "how_it_was_run": "as §1"}, "[23]": {"target": "Gal(b1-4)GlcNAc(b1-2)Man(a1-3)Man(b1-4)GlcNAc(b1-4)GlcNAc", "how_it_was_run": "as §1"}, "[24]": {"target": "Gal(b1-4)GlcNAc(b1-2)Man(a1-3)[Gal(b1-4)GlcNAc(b1-2)Man(a1-6)]Man(b1-4)GlcNAc(b1-4)GlcNAc", "how_it_was_run": "as §1"}, "[25]": {"target": "Gal(b1-4)GlcNAc(b1-2)Man(a1-3)[Gal(b1-4)GlcNAc(b1-2)Man(a1-6)]Man(b1-4)GlcNAc(b1-4)[Fuc(a1-6)]GlcNAc", "how_it_was_run": "as §1"}, "[26]": {"target": "Gal(b1-4)GlcNAc(b1-2)Man(a1-3)[Gal(b1-4)GlcNAc(b1-2)Man(a1-6)][Gal(b1-4)GlcNAc(b1-4)]Man(b1-4)GlcNAc(b1-4)[Fuc(a1-6)]GlcNAc", "how_it_was_run": "as §1"}, "[27]": {"target": "Gal(b1-4)GlcNAc(b1-2)Man(a1-3)[Gal(b1-4)GlcNAc(b1-2)Man(a1-6)][GlcNAc(b1-4)]Man(b1-4)GlcNAc(b1-4)[Fuc(a1-6)]GlcNAc", "how_it_was_run": "as §1"}, "[28]": {"target": "Gal(b1-4)GlcNAc(b1-2)Man(a1-3)[GlcNAc(b1-2)Man(a1-6)]Man(b1-4)GlcNAc(b1-4)GlcNAc", "how_it_was_run": "as §1"}, "[29]": {"target": "Gal(b1-4)GlcNAc(b1-2)Man(a1-3)[GlcNAc(b1-4)][Gal(b1-4)GlcNAc(b1-2)Man(a1-6)]Man(b1-4)GlcNAc(b1-4)GlcNAc", "how_it_was_run": "as §1"}, "[30]": {"target": "Gal(b1-4)GlcNAc(b1-2)Man(a1-3)[Man(a1-6)]Man(b1-4)GlcNAc(b1-4)GlcNAc", "how_it_was_run": "as §1"}, "[31]": {"target": "Gal(b1-4)GlcNAc(b1-2)Man(a1-6)Man(b1-4)GlcNAc(b1-4)GlcNAc", "how_it_was_run": "as §1"}, "[32]": {"target": "Gal(b1-4)GlcNAc(b1-2)Man(a1-6)[GlcNAc(b1-2)Man(a1-3)]Man(b1-4)GlcNAc(b1-4)GlcNAc", "how_it_was_run": "as §1"}}, "note": "Some of the results follow."}
{"binder": "B1", "values": [{"measurement": "glycan array binding signal (z-score)", "setting": "[1]", "value": 0.042}, {"measurement": "glycan array binding signal (z-score)", "setting": "[2]", "value": 0.136}, {"measurement": "glycan array binding signal (z-score)", "setting": "[3]", "value": -0.114}, {"measurement": "glycan array binding signal (z-score)", "setting": "[4]", "value": -0.153}, {"measurement": "glycan array binding signal (z-score)", "setting": "[5]", "value": -0.104}, {"measurement": "glycan array binding signal (z-score)", "setting": "[6]", "value": -0.12}, {"measurement": "glycan array binding signal (z-score)", "setting": "[7]", "value": -0.148}, {"measurement": "glycan array binding signal (z-score)", "setting": "[8]", "value": -0.102}, {"measurement": "glycan array binding signal (z-score)", "setting": "[9]", "value": 0.016}, {"measurement": "glycan array binding signal (z-score)", "setting": "Gal(b1-3)GlcNAc6S", "value": -0.086}, {"measurement": "glycan array binding signal (z-score)", "setting": "[10]", "value": -0.115}, {"measurement": "glycan array binding signal (z-score)", "setting": "[11]", "value": -0.049}, {"measurement": "glycan array binding signal (z-score)", "setting": "[12]", "value": 0.231}, {"measurement": "glycan array binding signal (z-score)", "setting": "[13]", "value": -0.09}, {"measurement": "glycan array binding signal (z-score)", "setting": "[14]", "value": -0.059}, {"measurement": "glycan array binding signal (z-score)", "setting": "[15]", "value": -0.025}, {"measurement": "glycan array binding signal (z-score)", "setting": "[16]", "value": -0.138}, {"measurement": "glycan array binding signal (z-score)", "setting": "[17]", "value": -0.064}, {"measurement": "glycan array binding signal (z-score)", "setting": "[18]", "value": -0.133}, {"measurement": "glycan array binding signal (z-score)", "setting": "[19]", "value": -0.084}, {"measurement": "glycan array binding signal (z-score)", "setting": "Gal(b1-4)Gal", "value": -0.11}, {"measurement": "glycan array binding signal (z-score)", "setting": "[20]", "value": -0.032}, {"measurement": "glycan array binding signal (z-score)", "setting": "[21]", "value": -0.08}, {"measurement": "glycan array binding signal (z-score)", "setting": "Gal(b1-4)Glc", "value": -0.076}, {"measurement": "glycan array binding signal (z-score)", "setting": "Gal(b1-4)Glc6S", "value": -0.091}, {"measurement": "glycan array binding signal (z-score)", "setting": "Gal(b1-4)GlcNAc", "value": 0.181}, {"measurement": "glycan array binding signal (z-score)", "setting": "[22]", "value": -0.125}, {"measurement": "glycan array binding signal (z-score)", "setting": "Gal(b1-4)GlcNAc(b1-2)Man", "value": -0.12}, {"measurement": "glycan array binding signal (z-score)", "setting": "[23]", "value": -0.116}, {"measurement": "glycan array binding signal (z-score)", "setting": "[24]", "value": -0.117}, {"measurement": "glycan array binding signal (z-score)", "setting": "[25]", "value": -0.032}, {"measurement": "glycan array binding signal (z-score)", "setting": "[26]", "value": -0.126}, {"measurement": "glycan array binding signal (z-score)", "setting": "[27]", "value": -0.165}, {"measurement": "glycan array binding signal (z-score)", "setting": "[28]", "value": -0.051}, {"measurement": "glycan array binding signal (z-score)", "setting": "[29]", "value": -0.16}, {"measurement": "glycan array binding signal (z-score)", "setting": "[30]", "value": -0.014}, {"measurement": "glycan array binding signal (z-score)", "setting": "[31]", "value": -0.101}, {"measurement": "glycan array binding signal (z-score)", "setting": "[32]", "value": -0.103}]}
